Results taken from PubChem BioAssay AID588689 (Southern Research Specialized Biocontainment Screening …, 2011).
Hit rate of the full screen: of about 340,000 compounds, about 1,000 (0.29%) were called active. Inconclusive means that the source gave no clear call. Such entries were picked first, then a sample of the others. Rule as the data show it: inconclusive = inhibition above about 29% without an active follow-up result; inactive = below that.

molecular target: Genome polyprotein (Dengue virus type 2 (strain 16681-PDK53)) (UniProt P29991); experiment: Dengue-2 NS5 methyltransferase inhibitors, primary screen, biochemical, confirmation dose response (AID 588689); settings: Dengue-2 NS5 methyltransferase capping enzyme assay, at 25 µM, stronger effect = higher value
Chain of UniProt P29991 (P29991 whole entry, looked up): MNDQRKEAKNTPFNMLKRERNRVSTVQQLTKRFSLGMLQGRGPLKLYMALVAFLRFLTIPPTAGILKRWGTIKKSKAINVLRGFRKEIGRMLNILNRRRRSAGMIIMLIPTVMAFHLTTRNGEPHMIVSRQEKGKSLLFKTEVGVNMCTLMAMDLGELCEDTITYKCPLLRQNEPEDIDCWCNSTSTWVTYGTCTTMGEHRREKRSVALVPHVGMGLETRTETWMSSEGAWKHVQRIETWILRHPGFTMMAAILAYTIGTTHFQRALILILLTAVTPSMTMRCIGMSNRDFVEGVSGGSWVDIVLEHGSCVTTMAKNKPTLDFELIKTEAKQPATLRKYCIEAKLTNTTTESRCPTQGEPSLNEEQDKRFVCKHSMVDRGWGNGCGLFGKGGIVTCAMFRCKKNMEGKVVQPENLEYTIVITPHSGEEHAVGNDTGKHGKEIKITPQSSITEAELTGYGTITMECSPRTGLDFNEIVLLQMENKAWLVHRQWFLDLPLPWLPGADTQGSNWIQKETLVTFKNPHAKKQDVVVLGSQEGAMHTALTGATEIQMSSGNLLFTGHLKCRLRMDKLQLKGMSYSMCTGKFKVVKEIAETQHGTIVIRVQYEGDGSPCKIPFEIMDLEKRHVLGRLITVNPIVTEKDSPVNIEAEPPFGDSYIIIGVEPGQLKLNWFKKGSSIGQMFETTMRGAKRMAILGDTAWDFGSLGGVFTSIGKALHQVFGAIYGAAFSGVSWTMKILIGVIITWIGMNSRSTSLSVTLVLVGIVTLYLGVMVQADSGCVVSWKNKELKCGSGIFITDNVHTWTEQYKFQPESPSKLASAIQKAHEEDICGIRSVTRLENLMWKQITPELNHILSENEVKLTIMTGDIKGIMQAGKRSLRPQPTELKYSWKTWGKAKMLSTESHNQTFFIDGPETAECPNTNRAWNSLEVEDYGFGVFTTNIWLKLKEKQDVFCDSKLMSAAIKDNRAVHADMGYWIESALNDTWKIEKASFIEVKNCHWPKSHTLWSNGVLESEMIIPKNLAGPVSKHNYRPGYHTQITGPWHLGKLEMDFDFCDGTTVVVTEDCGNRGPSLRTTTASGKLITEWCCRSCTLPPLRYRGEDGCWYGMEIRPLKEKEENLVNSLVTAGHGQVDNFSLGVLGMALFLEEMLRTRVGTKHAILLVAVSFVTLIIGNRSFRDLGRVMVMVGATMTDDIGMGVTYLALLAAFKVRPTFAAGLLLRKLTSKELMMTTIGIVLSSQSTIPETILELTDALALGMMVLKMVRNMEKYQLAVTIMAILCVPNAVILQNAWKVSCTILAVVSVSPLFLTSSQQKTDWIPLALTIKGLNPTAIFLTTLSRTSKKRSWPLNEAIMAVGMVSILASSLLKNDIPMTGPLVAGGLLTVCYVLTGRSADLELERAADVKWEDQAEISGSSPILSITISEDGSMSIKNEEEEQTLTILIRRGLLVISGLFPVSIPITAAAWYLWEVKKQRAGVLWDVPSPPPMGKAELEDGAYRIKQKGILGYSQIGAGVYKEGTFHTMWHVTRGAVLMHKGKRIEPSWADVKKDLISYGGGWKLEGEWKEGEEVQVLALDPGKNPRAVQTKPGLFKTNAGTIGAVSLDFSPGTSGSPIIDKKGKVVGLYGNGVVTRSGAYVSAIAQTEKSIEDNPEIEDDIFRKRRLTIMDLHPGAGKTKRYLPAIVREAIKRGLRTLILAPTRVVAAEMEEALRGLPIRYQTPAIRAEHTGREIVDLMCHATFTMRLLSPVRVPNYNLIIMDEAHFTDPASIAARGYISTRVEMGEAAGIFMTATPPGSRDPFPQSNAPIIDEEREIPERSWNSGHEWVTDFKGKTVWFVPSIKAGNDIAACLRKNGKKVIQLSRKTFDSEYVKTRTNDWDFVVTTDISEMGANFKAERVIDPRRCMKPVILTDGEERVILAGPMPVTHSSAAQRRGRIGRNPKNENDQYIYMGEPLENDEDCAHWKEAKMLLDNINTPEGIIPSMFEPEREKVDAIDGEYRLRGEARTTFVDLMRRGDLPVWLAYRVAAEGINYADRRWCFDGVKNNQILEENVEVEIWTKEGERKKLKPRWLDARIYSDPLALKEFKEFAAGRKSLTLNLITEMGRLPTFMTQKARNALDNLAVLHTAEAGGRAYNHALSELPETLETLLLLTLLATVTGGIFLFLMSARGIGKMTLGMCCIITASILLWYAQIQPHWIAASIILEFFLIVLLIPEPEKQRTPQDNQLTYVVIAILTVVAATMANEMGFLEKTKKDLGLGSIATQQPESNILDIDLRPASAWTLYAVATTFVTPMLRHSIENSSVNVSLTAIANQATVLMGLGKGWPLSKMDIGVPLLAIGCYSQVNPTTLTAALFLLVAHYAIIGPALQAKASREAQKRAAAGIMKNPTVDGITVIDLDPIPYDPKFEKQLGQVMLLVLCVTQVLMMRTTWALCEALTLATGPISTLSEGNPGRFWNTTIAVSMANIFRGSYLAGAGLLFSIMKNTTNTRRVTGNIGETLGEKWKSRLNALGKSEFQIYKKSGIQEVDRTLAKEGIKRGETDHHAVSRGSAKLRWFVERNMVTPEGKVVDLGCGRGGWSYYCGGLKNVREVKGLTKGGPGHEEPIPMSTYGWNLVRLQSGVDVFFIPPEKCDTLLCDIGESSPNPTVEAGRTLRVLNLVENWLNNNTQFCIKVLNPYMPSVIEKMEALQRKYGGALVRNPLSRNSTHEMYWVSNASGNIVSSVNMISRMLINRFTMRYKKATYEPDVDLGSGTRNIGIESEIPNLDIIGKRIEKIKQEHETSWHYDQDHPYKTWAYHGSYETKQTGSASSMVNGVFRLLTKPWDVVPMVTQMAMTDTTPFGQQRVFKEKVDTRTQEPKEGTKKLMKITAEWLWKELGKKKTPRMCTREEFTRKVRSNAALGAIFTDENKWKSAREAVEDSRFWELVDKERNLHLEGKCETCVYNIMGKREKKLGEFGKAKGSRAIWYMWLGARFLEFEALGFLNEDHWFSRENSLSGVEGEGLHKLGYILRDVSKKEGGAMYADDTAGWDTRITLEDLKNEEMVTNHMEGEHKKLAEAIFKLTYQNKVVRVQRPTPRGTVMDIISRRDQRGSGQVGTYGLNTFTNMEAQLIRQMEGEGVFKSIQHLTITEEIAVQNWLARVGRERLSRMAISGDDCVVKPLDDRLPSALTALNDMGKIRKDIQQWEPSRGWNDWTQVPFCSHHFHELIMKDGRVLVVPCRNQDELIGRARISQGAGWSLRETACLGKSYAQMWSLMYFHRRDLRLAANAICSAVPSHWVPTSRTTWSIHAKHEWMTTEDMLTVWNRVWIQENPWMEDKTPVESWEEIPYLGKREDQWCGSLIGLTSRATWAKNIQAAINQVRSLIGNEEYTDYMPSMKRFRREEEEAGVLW

Q: How did the inhibition turn out when `COc1cccc(C2C=C(c3ccc(OC)cc3OC)Nc3nnnn32)c1` (stereo not given) was run?
A: The inhibition was inconclusive: 37%.

Q: With `C=CCSC1=N/C(=C\c2cc(OC)c3c(c2)OCO3)C(=O)S1` as the molecule, how does the inhibition read?
A: The inhibition was inconclusive: 161%.

Q: With `Cc1ccc(S(=O)(=O)c2cc3c(=O)n4ccccc4nc3n(C)c2=N)cc1C` as the molecule, how does the inhibition read?
A: Its inhibition is inconclusive: 31.4%.

Q: With `O=[N+]([O-])c1cc(Br)cc(C=Nc2ccc3c(c2)OCO3)c1O` as the molecule, how does the inhibition read?
A: Its inhibition is inactive: 17.9%.

Q: Which inhibition does the source give for `Cc1cccc(C)c1NC(=O)/C(C#N)=C/c1ccc(-c2ccc(C(=O)O)cc2)o1` here?
A: The inhibition was inconclusive: 44.9%.

Q: `O=C1ON=C(c2ccccc2)/C1=C/c1ccccc1` was tested. Which inhibition did it give?
A: The inhibition was inactive: 27%.

Q: `CCCCNC(=O)c1cc2c(=O)n3cccc(C)c3nc2n(Cc2ccccc2)c1=N` was tested. Which inhibition did it give?
A: Its inhibition is inconclusive: 32.5%.

Q: How did the inhibition turn out when `N=C1/C(=C\c2ccc(OC(=O)c3ccc(F)cc3)cc2)C(=O)N=C2SC(N3CCCC3)=NN12` was run?
A: The inhibition was inactive: -2.77%.

Q: How did the inhibition turn out when `Brc1ccc(C2=CC(c3cccs3)n3ncnc3N2)cc1` (stereo not given) was run?
A: Its inhibition is inconclusive: 168%.

Q: With `COc1ccccc1CNS(=O)(=O)c1cccc2nsnc12` as the molecule, how does the inhibition read?
A: The inhibition was inactive: 3.22%.

Q: With `Cc1cc2c(SCc3ccccc3Cl)nc(N)nc2nc1C` as the molecule, how does the inhibition read?
A: Its inhibition is inconclusive: 72.2%.

Q: Which inhibition does the source give for `CC1(C)CC2CC(C)(CN2C(=O)COC(=O)c2cccc([N+](=O)[O-])c2)C1` (stereo not given) here?
A: Its inhibition is inactive: 6.17%.

Q: With `Cc1nn(-c2ccccc2)c(Cl)c1/C=C1\SC(=S)N(C)C1=O` as the molecule, how does the inhibition read?
A: Its inhibition is inactive: 4.37%.

Q: How did the inhibition turn out when `CC(CCC(C)C(C)(C)C)[C@@H]1CC[C@H]2C3C[C@H](OS(O)(=S)=S)[C@H]4C[C@H](OS(O)(=S)=S)[C@@H](OS(O)(=S)=S)C[C@]4(C)[C@H]3CC[C@]12C` (stereo not given in full) (tested in a mixture with another compound) was run?
A: The inhibition was inconclusive: 94.5%.

Q: Which inhibition does the source give for `Cc1n[nH]c(C)c1Sc1ccccc1N=Cc1cc(Cl)cc([N+](=O)[O-])c1O` here?
A: Its inhibition is inconclusive: 75.6%.

Q: How did the inhibition turn out when `CCN(CC)CCCNc1ccc2ncn3c4ccc(O)cc4c(=O)c1c23` was run?
A: The inhibition was inconclusive: 41.8%.

Q: Which inhibition does the source give for `CC1CC(=O)c2cc(-c3ccccc3)oc2C1` (stereo not given) here?
A: Its inhibition is inactive: 5.14%.

Q: Which inhibition does the source give for `Cc1ccc(S(=O)(=O)Nc2nc(-c3ccccc3)cs2)cc1` here?
A: The inhibition was inactive: 23%.

Q: How did the inhibition turn out when `Cc1cc[n+](-c2[nH]c(=O)sc2/C=N/NC([S-])=Nc2ccccc2)cc1` was run?
A: Its inhibition is inconclusive: 113%.

Q: How did the inhibition turn out when `Nc1ccc(S(N)(=O)=O)cc1N` was run?
A: Its inhibition is inconclusive: 51.3%.

Q: `COc1ccccc1OCCCCNC(C)(C)C` was tested. Which inhibition did it give?
A: Its inhibition is inactive: -1.39%.

Q: `COc1cc(Br)cc2cc(C(=O)NCC3CCCO3)c(=O)oc12` (stereo not given) was tested. Which inhibition did it give?
A: The inhibition was inconclusive: 152%.

Q: For `COCCn1c(C)cc(C(=O)CSc2n[nH]c(N)n2)c1C`, which inhibition is on record?
A: The inhibition was inactive: -0.41%.

Q: For `COc1ccc(O)c(/C=C2/SC(=S)N(Cc3ccccc3)C2=O)c1`, which inhibition is on record?
A: Its inhibition is inconclusive: 171%.

Q: `CCN(CC(=O)Nc1c(C(=O)OC)[nH]c2ccc(Cl)cc12)c1ccc2c(c1)OCO2` was tested. Which inhibition did it give?
A: The inhibition was inconclusive: 35.2%.

Q: `Cc1cccc(NCc2cc(Cl)cc(Cl)c2O)n1` was tested. Which inhibition did it give?
A: Its inhibition is inactive: -2.76%.

Q: With `CCOC(=O)N1CCN(c2nc3ccccc3nc2C(C#N)S(=O)(=O)c2ccc(C)cc2)CC1` (stereo not given) as the molecule, how does the inhibition read?
A: The inhibition was inconclusive: 108%.

Q: With `O=C(c1oc2ccccc2c1CSCc1ccccc1)N1CCN(c2ncccn2)CC1` as the molecule, how does the inhibition read?
A: The inhibition was inconclusive: 45.6%.

Q: With `CC(=O)N[C@@H](CC(=O)O)C(=O)O` as the molecule, how does the inhibition read?
A: The inhibition was inconclusive: 103%.

Q: With `O=C(NNc1cccc(Cl)c1)c1cccnc1Cl` as the molecule, how does the inhibition read?
A: Its inhibition is inactive: -5.34%.

Q: How did the inhibition turn out when `CC(=O)Nc1ccc(NC2=Nc3ccccc3N3C2=Nc2c(c(C)nn2-c2ccccc2)C3c2ccccc2)cc1` (stereo not given) was run?
A: The inhibition was inconclusive: 167%.

Q: How did the inhibition turn out when `CCOC(=O)C1CCN(c2nc(N)c3c(N)nc(SCC(=O)O)cc3c2C#N)CC1` was run?
A: Its inhibition is inconclusive: 66%.

Q: Which inhibition does the source give for `Cc1cccc(CCNC(=O)CCc2nnc(CCc3ccccc3)o2)n1` here?
A: The inhibition was inactive: -0.91%.

Q: `CC(OC(=O)/C(C#N)=C/c1ccc(N(C)C)cc1)C(=O)NCc1ccco1` (stereo not given) was tested. Which inhibition did it give?
A: The inhibition was inconclusive: 34%.

Q: How did the inhibition turn out when `COc1ccc(/C=C2\SC(=S)N(CCCC(=O)Nc3ccccc3C(=O)O)C2=O)cc1OC` was run?
A: Its inhibition is inactive: -34.8%.

Q: How did the inhibition turn out when `c1ccc(C2=NOC(c3nnc(-c4ccccc4)o3)C2)cc1` (stereo not given) was run?
A: Its inhibition is inconclusive: 32.8%.

Q: For `CC(=O)Nc1ccc2c(O)cc(S(=O)(=O)O)cc2c1`, which inhibition is on record?
A: The inhibition was inactive: -7.72%.

Q: With `CSc1nc(-c2ccccc2)nc(NC(=O)C(C)C)c1C(C)=O` as the molecule, how does the inhibition read?
A: The inhibition was inactive: -10.3%.

Q: Which inhibition does the source give for `CCOC(=O)/C(C#N)=C/c1cn(CCC(=O)O)nc1-c1cccc(Cl)c1` here?
A: Its inhibition is inactive: -8.58%.

Q: How did the inhibition turn out when `Cc1ccc(S(=O)(=O)N(C(=O)c2ccncc2)c2ccc(OC(=O)c3ccncc3)c3ccccc23)c(C)c1` was run?
A: The inhibition was inconclusive: 31.8%.

Q: `Cc1ccc(C)c(S(=O)(=O)C(C#N)c2nc3ccccc3nc2N2CC(C)OC(C)C2)c1` (stereo not given) was tested. Which inhibition did it give?
A: Its inhibition is inconclusive: 84.7%.

Q: For `O=C1CSC(=S)N1/N=C/c1ccc2c(c1)OCCO2`, which inhibition is on record?
A: Its inhibition is inactive: -7.17%.

Q: With `CC1(C)CC(=O)C(C(c2ccc(F)cc2)C2C(=O)CC(C)(C)CC2=O)C(=O)C1` as the molecule, how does the inhibition read?
A: Its inhibition is inactive: -0.73%.

Q: For `CCOc1ccccc1C=C1SC(=S)NC1=O`, which inhibition is on record?
A: Its inhibition is inconclusive: 88.8%.

Q: With `CN(C)c1ccc(/C=C/C(=O)c2cccc(Br)c2)cc1` as the molecule, how does the inhibition read?
A: Its inhibition is inconclusive: 166%.

Q: With `C/C(=N\NS(=O)(=O)c1ccccc1)c1ccc2c(c1)OCCO2` as the molecule, how does the inhibition read?
A: Its inhibition is inactive: -5.78%.

Q: For `CCCCCCn1c(=O)[nH]c2nc3cc(N)c(C)cc3nc2c1=O`, which inhibition is on record?
A: The inhibition was inconclusive: 182%.

Q: How did the inhibition turn out when `Clc1cc(-c2ccc(/C=N/n3cnnc3)o2)ccc1Br` was run?
A: The inhibition was inconclusive: 34.3%.

Q: Which inhibition does the source give for `CCN(C(=O)COC(=O)c1ccccc1NCCO)c1cccc2ccccc12` here?
A: The inhibition was inactive: 6.52%.

Q: How did the inhibition turn out when `CCC1(O)C(=O)OCc2c1cc1n(c2=O)Cc2cc3cc(O)ccc3nc2-1` (stereo not given) was run?
A: The inhibition was inconclusive: 116%.

Q: How did the inhibition turn out when `CN(/N=C/c1ccc2c(c1)OCO2)c1ccccc1` was run?
A: The inhibition was inactive: -8.15%.

Q: Which inhibition does the source give for `CCc1nnc(NS(=O)(=O)c2ccc(NC(=S)NC(=O)/C=C/c3ccccc3)cc2)s1` here?
A: The inhibition was inactive: 8.99%.

Q: How did the inhibition turn out when `Cc1ccc(/C=c2\s/c(=C(/C#N)C(=O)N3CCCC3)n(Cc3ccco3)c2=O)s1` was run?
A: Its inhibition is inconclusive: 44.2%.

Q: Which inhibition does the source give for `CN1C(=O)NC(c2ccccc2[N+](=O)[O-])C2=C1CCCC2=O` (stereo not given) here?
A: Its inhibition is inconclusive: 169%.

Q: For `CCN1C(=O)/C(=C2/C=Cc3ccccc3N2C)OC1=S`, which inhibition is on record?
A: The inhibition was inconclusive: 44%.
